# Test results published in PubChem BioAssay AID463173 (ICCB-Longwood Screening Facility, Harvard Medical School, 2010).
# Screen size: about 52,000 compounds; about 4,300 (8.3%) were called active. Cut-off read from the data, not from the text of the source: active = survival mostly below about 52% (no sharp cut-off); inactive = mostly above about 56%. Some of the results follow.
# Tested on: DeltatarO mutant
# Experiment: growth inhibition of S. aureus wild type versus tarO mutant, primary screen, teichoic acid synthesis inhibitors, RN4220, OD600 (AID 463173)
# Conditions: OD600, 18 h, hits give low values, screened at 18.75 µg/mL (by protocol)
row,Compound,survival
1,Cc1cc(C)cc(C(=O)NCCc2sc(-c3ccc(F)cc3)nc2C)c1,inactive: 82%
2,N#Cc1ccc(NC(=O)COCc2cc(-c3ccco3)on2)cc1,inactive: 84%
3,CCOC(=O)C1CCN(CCC(=O)Nc2ccccc2OC)CC1,inactive: 74%
4,COc1ccc(OC)c(C2CC(=O)Nc3c2c(=O)[nH]c2nc4ccccc4n32)c1 (stereo not drawn),inactive: 164%
5,COc1ccc(Cl)cc1N/C=C(/C#N)c1nc2ccccc2n1C,inactive: 82%
6,Cn1c(=O)c2c(nc(CN3CCN(c4ccccc4F)CC3)n2Cc2ccc(F)cc2)n(C)c1=O,inactive: 90%
7,CCOc1ccc(N(Cc2ccccc2)C(=O)c2nc(SC)ncc2Cl)cc1,inactive: 72%
8,O=c1c(S(=O)(=O)c2ccccc2)cn(Cc2ccccc2)c2cc(N3CCCC3)c(F)cc12,inactive: 69%
9,COc1ccc(Cl)cc1N(C(C)=O)c1nc(C)cc(C)c1C#N,inactive: 92%
10,Cc1nn(C)c2c1c(C(F)(F)F)cc(=O)n2Cc1ccc(Br)cc1F,inactive: 94%
11,COc1cc(N)c(Cc2nccc3cc(OC)c(OC)cc23)cc1OC,inactive: 94%
12,CCOc1ccccc1C(=O)NC1CCNCC1,inactive: 91%
13,Cc1cccc(N2CCN(Cc3cc(=O)oc4cc(C)ccc34)CC2C)c1 (stereo not drawn),inactive: 77%
14,CC(C)c1ccc(CNc2nc(-c3ccco3)nn2S(=O)(=O)c2ccc(F)cc2)cc1,inactive: 77%
15,CCOC(=O)C1CCCN(S(=O)(=O)c2ccc(OC)cc2)C1 (stereo not drawn),inactive: 76%
16,CCn1c(SCC(N)=O)nc2ccccc21,inactive: 79%
17,Cc1ccccc1N1CC(c2nnc(NC(=O)c3ccco3)s2)CC1=O (stereo not drawn),inactive: 83%
18,CCn1c(C(NC(=O)c2ccc(C)cc2)C(C)C)n[nH]c1=S (stereo not drawn),inactive: 80%
19,Cc1cc(C)cc(NC(=O)CN2CCC(NC(=O)Cc3ccccc3)CC2)c1,inactive: 106%
20,Cc1sc2nc3n(c(=O)c2c1C)NC(=O)CC3,inactive: 97%

row,Compound,survival
1,Cc1cccc(NC(=O)N2CCC(N3CCN(Cc4ccccc4)C(=O)C3=O)CC2)c1C,inactive: 66%
2,CCCC1(C(=O)OC)NC(c2ccco2)C2C(=O)N(C)C(=O)C21 (stereo not drawn),inactive: 104%
3,CCOC(=O)c1ccccc1NC(=O)c1cc2ccc3cccnc3c2[nH]1,inactive: 117%
4,Cc1oc2ncnc(N3CCOCC3)c2c1C(=O)NCCc1ccccc1,inactive: 89%
5,CCOC(=O)COc1ccc(C)cc1C(=O)c1ccn2nc(-c3ccc(Cl)cc3)cc2n1,inactive: 87%
6,CC(C)NC(=O)c1ccc2c(c1)nc1n2CCCCC1,inactive: 91%
7,O=C(c1cc(-c2ccc(F)cc2)on1)N1CCN(c2ccc(F)cc2)CC1,inactive: 67%
8,CCc1ccc(N2CC(C(=O)NC(C)CC)CC2=O)cc1 (stereo not drawn),inactive: 80%
9,COc1ccccc1-c1coc2c(CN(C)C)c(O)ccc2c1=O,inactive: 66%
10,O=C(CN1C(=O)c2cccc3cccc1c23)Nc1ccccc1Br,inactive: 63%
11,CCCCNS(=O)(=O)c1ccc2nc(-c3cccnc3)cc(C(=O)NC(C)C)c2c1,inactive: 83%
12,CCCC1N=C2c3ccccc3N=C(SCC(=O)NCCc3ccc(Cl)cc3)N2C1=O (stereo not drawn),inactive: 93%
13,CCCn1c(=O)c2sccc2n2c(CCCC(=O)N3CCN(c4cccc(Cl)c4)CC3)nnc12,inactive: 79%
14,CC(=O)c1cccc(NC(=O)CN2C(=O)CC(c3ccc(C)cc3C)=Nc3ccccc32)c1,inactive: 129%
15,O=C(/C=C/c1ccc(Cl)cc1)N1CCC(c2nc3ccccc3o2)CC1,inactive: 107%
16,CCCCN(CC)CCCNC(=O)c1cn(CC)c2ccc(S(=O)(=O)N3CCc4ccccc4C3)cc2c1=O,inactive: 79%
17,Cc1ccc(NS(=O)(=O)c2ccc3nc(-c4ccccc4)[nH]c3c2)c(Br)c1,inactive: 79%
18,Cc1sc2ncn(CC(=O)N(C)c3ccc(C(C)C)cc3)c(=O)c2c1S(=O)(=O)N1CCC(C)CC1,inactive: 81%
19,NC(=O)c1cc2c(ccc3ccccc32)oc1=O,inactive: 96%
20,COc1ccc(-c2noc(CC(=O)Nc3cc(OC)ccc3OC)n2)cc1,inactive: 63%

row,Compound,survival
1,CC1CCC(NC(=O)C2(C)Cc3ccccc3C(=O)N2Cc2ccc(Cl)cc2)CC1 (stereo not drawn),inactive: 96%
2,O=C(Cn1cc(S(=O)(=O)Cc2ccccc2Cl)c2ccccc21)NCCc1ccccc1,inactive: 66%
3,CCOc1ccccc1CNS(=O)(=O)c1cc2c(cc1C)NC(=O)CO2,inactive: 144%
4,Cc1ccccc1CNC(=O)CCC(=O)N1CCSc2ccccc21,inactive: 49%
5,Cc1ccc(-c2cc3ncc4c(n3n2)-c2cc(Cl)ccc2OC4)cc1,inactive: 87%
6,CCn1nnc2cc(C(=O)Nc3cc(C)ccc3C)ccc21,inactive: 77%
7,COc1ccc(NC(=O)CC2C(=O)N(c3cccc(OC)c3)C(=O)N2CCC2=CCCCC2)cc1 (stereo not drawn),inactive: 112%
8,CCOc1ccc(CC(=O)NCc2ccc3c(c2)CCN3C(=O)c2ccccc2)cc1OCC,inactive: 72%
9,CCc1cc2c(cc3c(=O)n(CC(=O)N4CCN(c5cccc(C)c5C)CC4)nc(CC)n32)s1,inactive: 84%
10,COc1ccc(CCNCc2c(C(=O)O)c(C)n(Cc3cccc(Cl)c3)c2C)c(OC)c1OC,inactive: 95%
11,CCc1ccccc1NC(=O)CCC(=O)N1CC(C)Oc2ccc(C)cc21 (stereo not drawn),inactive: 62%
12,O=C(Cn1cc(C(=O)c2ccccc2)c(=O)c2cc3c(cc21)OCCO3)Nc1ccc(F)c(F)c1,inactive: 121%
13,Cc1nc2cc(N3CCN(C)CC3)c(NC(=O)C(C)(C)C)cc2c(=O)n1Cc1ccccc1,inactive: 77%
14,Cc1ccc(C)c(N2CCN(S(=O)(=O)c3ccc(C(=O)N(C)C)s3)CC2)c1,inactive: 60%
15,COc1ccc(Cl)cc1NC(=O)c1cc(S(=O)(=O)N(C)Cc2ccccc2)ccc1F,inactive: 74%
16,CCOc1ccc(-c2cc(C(=O)NCCc3ccc(OC)c(OC)c3)c3c(-c4ccc(F)cc4)[nH]nc3n2)cc1,inactive: 85%
17,COc1cccc(-c2nc(SCC(=O)Nc3ccc4c(c3)OCCO4)c(-c3ccc(C)cc3)[nH]2)c1,inactive: 62%
18,O=C1OCCC1Sc1nc2ccccc2n1Cc1ccccc1 (stereo not drawn),active: 73%
